Measured values: PubChem BioAssay AID1346428 (National Center for Advancing Translational Sciences (NCATS), 2018)
Among all 48,000 compounds or so, about 1,200 (2.5%) were called active. Inconclusive results (about 2%) are left out.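 Rule for the calls: active = activation of at least 60% and not above a set upper limit (about 1 call in 100 departs from these limits); inconclusive = activation of 40% to 60%, or above that upper limit; inactive = activation under 40%.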 Some of the results follow.

Each compound was assayed against Probable G-protein coupled receptor 32 (Homo sapiens) (UniProt O75388) (assay: qHTS for Agonists of Human Resolvin D1 Receptor DRV1). Settings: CHO-K1 GPR32 beta-arrestin PathHunter luminescence, 90 min; at 76.9 µM; stronger effect = higher value; zero percent set by DMSO-only wells.
Procedure, shortened: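 Using DMSO wells as EC0, agonist-induced signal was taken as chemiluminescence from beta-Gal reconstituted upon beta-arrestin recruitment to GPR32 in CHO-K1 cells after 90 min compound treatment.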
Note: 0% is about no effect.

Sequence of UniProt O75388 (O75388 whole entry, looked up): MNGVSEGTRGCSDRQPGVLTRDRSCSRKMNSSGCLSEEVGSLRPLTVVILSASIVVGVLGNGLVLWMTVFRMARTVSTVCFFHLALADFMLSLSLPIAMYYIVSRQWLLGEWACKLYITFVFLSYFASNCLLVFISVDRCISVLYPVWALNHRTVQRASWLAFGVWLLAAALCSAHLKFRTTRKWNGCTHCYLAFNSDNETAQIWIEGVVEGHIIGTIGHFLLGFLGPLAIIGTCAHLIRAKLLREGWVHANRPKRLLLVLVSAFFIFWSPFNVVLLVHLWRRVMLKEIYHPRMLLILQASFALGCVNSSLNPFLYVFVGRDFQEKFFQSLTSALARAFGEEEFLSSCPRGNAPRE

Compound	activation
CCN(CC)c1nn2c(=O)c(C(=O)NCCc3ccccc3C)cnc2s1	inactive: -5.44%
O=C(NCc1ccc(Cl)cc1)C1CCC(CNS(=O)(=O)c2ccccc2)CC1 (stereo not given)	active: 83%
CCCCOc1ccc(C(=O)NCCc2sc3nc(-c4ccc(OC)cc4)nn3c2C)cc1	inactive: -0.469%
CCOc1cc2c(cc1OCC)C(CC(=O)O)N(C(=O)Nc1ccc(Br)c(C)c1)CC2 (stereo not given)	inactive: -15%
O=C(Nc1ccc(N2CCN(c3ccc(F)cc3)CC2)c(C(=O)O)c1)c1cccs1	inactive: 1.7%
COc1ccc(NC(=O)c2ccco2)cc1NC(=O)c1ccc(C#N)cc1F	inactive: 45.2%
Cc1c(C(=O)Nc2ccc(F)c(Cl)c2)sc2nc3n(c(=O)c12)CCC3	inactive: -10.5%
CCCNC(=O)c1cnn(-c2ccc(C)c(C)c2)c1C1CCN(C(=O)OC(C)(C)C)CC1	inactive: -10.8%
COc1ccccc1N1CCN(c2ncnc3c2cnn3-c2ccc(C)cc2)CC1	inactive: 0.586%
COCCn1c(SCC(=O)c2ccc(C)cc2)nc2cc(C(=O)NC3CCCC3)ccc2c1=O	inactive: 5.98%
FC(F)(F)c1cc(Nc2nc3ccccc3c3nncn23)ccc1Cl	inactive: -3.3%
O=C(NCCc1ccccc1)C1CCN(c2nc3ccccc3nc2C(F)(F)F)CC1	inactive: -20.9%
CCOc1ccc(N(CC)S(=O)(=O)N2CCCC(C(=O)Nc3ccc(OC)c(Cl)c3)C2)cc1 (stereo not given)	inactive: -8.84%
COc1cccc(NC(=O)CSc2c3c(nc4ccccc24)CCCC3)c1	inactive: 37.9%
Cc1cccc(NC(=O)CN2C(=O)CSc3ccc(S(=O)(=O)N4CCCC4)cc32)c1C	inactive: -14.6%
COc1ccc(-c2cc3nc(C)c(CCC(=O)NC(C)c4ccccc4)c(C)n3n2)c(OC)c1 (stereo not given)	inactive: -0.868%
COc1ccc(-c2onc(C)c2C)cc1S(=O)(=O)N1CCN(c2cc(C)ccc2C)CC1	inactive: -2.64%
Cc1c(Cl)ccc2sc(N3CCN(C(=O)C4CC4)CC3)nc12	active: 76.5%
COC(=O)CC(=O)CSc1nc2cc(C(=O)NCC(C)C)ccc2c(=O)n1CCc1ccccc1	inactive: -15.9%
O=C(Nc1ccccc1C(F)(F)F)N1CC=C(c2c[nH]c3ccccc23)CC1	inactive: -20.4%

Compound	activation
Cc1nn(C(=O)c2cccc([N+](=O)[O-])c2C)c(C)c1S(=O)(=O)N1CCCCCC1	inactive: -9.71%
CC1CCN(S(=O)(=O)c2ccc3c(c2)CCN3C(=O)Nc2ccc(Br)cc2F)CC1	inactive: -29.1%
Cc1cccc(NC(=O)N2CCC(CN3CCCCCC3)CC2)c1C	inactive: -18%
CCc1ccccc1NC(=O)Cn1nc(N2CCN(c3ccccc3OC)CC2)ccc1=O	inactive: 40.8%
CCOc1ccccc1C(=O)N1CCC(c2nc3ccccc3o2)CC1	inactive: 0.637%
COc1ccc(OC)c(NC(=O)CC(=O)Nc2ccc3nc4n(c(=O)c3c2)CCCCC4)c1	inactive: -6.22%
Cc1nc(SCC(=O)Nc2ccc(C(=O)O)cc2)n[nH]1	inactive: 1.6%
Cc1ccc(C2CCN(C(=O)c3cnn(-c4ccc(C)c(C)c4)c3C3CCN(C(=O)OC(C)(C)C)CC3)C2)cc1 (stereo not given)	inactive: -8.43%
CN(C)CCCO[C@@H]1[C@H]2OC(C)(C)O[C@H]2O[C@@H]1C(O)CO (stereo not given in full)	inactive: 2.72%
O=C1c2ccccc2S(=O)(=O)N1CCCCN1CCN(c2ncccn2)CC1	inactive: 0.0021%
Cc1cc(C)c(OCCOCCn2c(-c3ccc(Cl)cc3)nc3ccccc3c2=O)c(C)c1	inactive: -8.9%
Cc1cccc(C(C)C)c1NC(=O)c1ccc2c(c1)CCN2S(C)(=O)=O	inactive: 6.1%
Cc1nn2c(=O)cc(COC(=O)c3cccc(NC(=O)c4ccc(F)cc4)c3)nc2s1	inactive: 20.5%
Cc1ccc(Cl)cc1NC(=O)Cn1c(=O)n(C(C)C)c(=O)c2oc3ccccc3c21	inactive: -9.12%
Cc1cccc(Nc2nnc(-c3ccc(C)c(S(=O)(=O)N4CCN(C)CC4)c3)c3ccccc23)c1	inactive: -22.5%
Cc1ccc(-n2nc(-c3ccccc3)c3cnc4cc5c(cc4c32)OCO5)cc1C	inactive: 14%
CC(C)CCNC(=O)C(=O)Nc1c2c(nn1-c1ccc(Cl)cc1)CSC2	inactive: -14.7%
CCn1c(CN2CCC(C)CC2)nc2cc(NC(=O)c3ccc([N+](=O)[O-])cc3)ccc21	inactive: 4.54%
O=C(O)CCc1ccc(-c2ccccc2)n1-c1ccc(C(=O)O)cc1	inactive: -2.17%
CC(=O)Nc1cccc(NC(=O)CSc2ccc(-c3sc(-c4ccccc4)nc3C)nn2)c1	inactive: 22.3%
